Measurements taken from PMC9911399, “Two distinct binding modes provide the RNA-binding protein RbFox with extraordinary sequence specificity”.
Substitutions are numbered along the chain they refer to; changes in the protein carry UniProt numbers. Some of the results follow.

T1: RBFOX1 RRM RbFoxmut (Fox-RRM*) (Homo sapiens, UniProt Q9NWB1 109-208, R118D;E147R;N151S;E152T)
T1 sequence: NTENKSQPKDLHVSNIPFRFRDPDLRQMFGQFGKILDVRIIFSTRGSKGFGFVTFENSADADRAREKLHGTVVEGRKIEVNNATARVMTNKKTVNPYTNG

B1: UAGUUGU (DNA:RNA)
RNA: GGGAGACCGGAAUUCAGAUUGUCCUAGUUGUUUAAAUCCCGUCGUAGCCACCA
DNA 1: CAATCTGAATTCCGGTCTCCC
DNA 2: TGGTGGCTACGACGGGATT
B2: GUGCAAU (DNA:RNA)
RNA: B1 RNA with U25G, A26U, U28C, U29A, G30A
DNA 1: CAATCTGAATTCCGGTCTCCC
DNA 2: TGGTGGCTACGACGGGATT
B3: CCAGUGG (DNA:RNA)
RNA: B1 RNA with U25C, A26C, G27A, U28G, U31G
DNA 1: CAATCTGAATTCCGGTCTCCC
DNA 2: TGGTGGCTACGACGGGATT
B4: AUGGUAG (DNA:RNA)
RNA: B1 RNA with U25A, A26U, U28G, G30A, U31G
DNA 1: CAATCTGAATTCCGGTCTCCC
DNA 2: TGGTGGCTACGACGGGATT
B5: AGACCUA (DNA:RNA)
RNA: GGGAGACCGGAAUUCAGAUUGUCCAGACCUAUUAAAUCCCGUCGUAGCCACCA
DNA 1: CAATCTGAATTCCGGTCTCCC
DNA 2: TGGTGGCTACGACGGGATT
B6: GGGCCGG (DNA:RNA)
RNA: B5 RNA with A25G, A27G, U30G, A31G
DNA 1: CAATCTGAATTCCGGTCTCCC
DNA 2: TGGTGGCTACGACGGGATT
B7: AAUUCAC (DNA:RNA)
RNA: B5 RNA with G26A, A27U, C28U, U30A, A31C
DNA 1: CAATCTGAATTCCGGTCTCCC
DNA 2: TGGTGGCTACGACGGGATT
B8: GUGGAAG (DNA:RNA)
RNA: B1 RNA with U25G, A26U, U28G, U29A, G30A, U31G
DNA 1: CAATCTGAATTCCGGTCTCCC
DNA 2: TGGTGGCTACGACGGGATT
B9: GAACUGA (DNA:RNA)
RNA: B5 RNA with A25G, G26A, C29U, U30G
DNA 1: CAATCTGAATTCCGGTCTCCC
DNA 2: TGGTGGCTACGACGGGATT
B10: UAUUAUU (DNA:RNA)
RNA: B1 RNA with G27U, U29A, G30U
DNA 1: CAATCTGAATTCCGGTCTCCC
DNA 2: TGGTGGCTACGACGGGATT
B11: CCGAACC (DNA:RNA)
RNA: B1 RNA with U25C, A26C, U28A, U29A, G30C, U31C
DNA 1: CAATCTGAATTCCGGTCTCCC
DNA 2: TGGTGGCTACGACGGGATT
B12: UGCGCUA (DNA:RNA)
RNA: B5 RNA with A25U, A27C, C28G
DNA 1: CAATCTGAATTCCGGTCTCCC
DNA 2: TGGTGGCTACGACGGGATT
B13: AAAUCGC (DNA:RNA)
RNA: B5 RNA with G26A, C28U, U30G, A31C
DNA 1: CAATCTGAATTCCGGTCTCCC
DNA 2: TGGTGGCTACGACGGGATT
B14: CCCCUAC (DNA:RNA)
RNA: B5 RNA with A25C, G26C, A27C, C29U, U30A, A31C
DNA 1: CAATCTGAATTCCGGTCTCCC
DNA 2: TGGTGGCTACGACGGGATT
B15: CAUCGAA (DNA:RNA)
RNA: B5 RNA with A25C, G26A, A27U, C29G, U30A
DNA 1: CAATCTGAATTCCGGTCTCCC
DNA 2: TGGTGGCTACGACGGGATT
B16: CGAAUGU (DNA:RNA)
RNA: B1 RNA with U25C, A26G, G27A, U28A
DNA 1: CAATCTGAATTCCGGTCTCCC
DNA 2: TGGTGGCTACGACGGGATT
B17: CCUGCUU (DNA:RNA)
RNA: B5 RNA with A25C, G26C, A27U, C28G, A31U
DNA 1: CAATCTGAATTCCGGTCTCCC
DNA 2: TGGTGGCTACGACGGGATT
B18: UUGGUAC (DNA:RNA)
RNA: B1 RNA with A26U, U28G, G30A, U31C
DNA 1: CAATCTGAATTCCGGTCTCCC
DNA 2: TGGTGGCTACGACGGGATT
B19: CGUGCCG (DNA:RNA)
RNA: B5 RNA with A25C, A27U, C28G, U30C, A31G
DNA 1: CAATCTGAATTCCGGTCTCCC
DNA 2: TGGTGGCTACGACGGGATT
B20: CCAGAGC (DNA:RNA)
RNA: B5 RNA with A25C, G26C, C28G, C29A, U30G, A31C
DNA 1: CAATCTGAATTCCGGTCTCCC
DNA 2: TGGTGGCTACGACGGGATT
B21: GUUAGCG (DNA:RNA)
RNA: GGGAGACCGGAAUUCAGAUUGUCCGUUAGCGUUAAAUCCCGUCGUAGCCACCA
DNA 1: CAATCTGAATTCCGGTCTCCC
DNA 2: TGGTGGCTACGACGGGATT
B22: GGCUGGU (DNA:RNA)
RNA: B1 RNA with U25G, A26G, G27C, U29G
DNA 1: CAATCTGAATTCCGGTCTCCC
DNA 2: TGGTGGCTACGACGGGATT
B23: UACAUUG (DNA:RNA)
RNA: B1 RNA with G27C, U28A, G30U, U31G
DNA 1: CAATCTGAATTCCGGTCTCCC
DNA 2: TGGTGGCTACGACGGGATT
B24: AAAAUUG (DNA:RNA)
RNA: B5 RNA with G26A, C28A, C29U, A31G
DNA 1: CAATCTGAATTCCGGTCTCCC
DNA 2: TGGTGGCTACGACGGGATT
B25: GUUUUAC (DNA:RNA)
RNA: B21 RNA with A28U, G29U, C30A, G31C
DNA 1: CAATCTGAATTCCGGTCTCCC
DNA 2: TGGTGGCTACGACGGGATT
B26: GAUUCUA (DNA:RNA)
RNA: B5 RNA with A25G, G26A, A27U, C28U
DNA 1: CAATCTGAATTCCGGTCTCCC
DNA 2: TGGTGGCTACGACGGGATT
B27: GCAUCAG (DNA:RNA)
RNA: B5 RNA with A25G, G26C, C28U, U30A, A31G
DNA 1: CAATCTGAATTCCGGTCTCCC
DNA 2: TGGTGGCTACGACGGGATT
B28: CAUCACU (DNA:RNA)
RNA: B21 RNA with G25C, U26A, A28C, G29A, G31U
DNA 1: CAATCTGAATTCCGGTCTCCC
DNA 2: TGGTGGCTACGACGGGATT
B29: AUUCUUU (DNA:RNA)
RNA: B5 RNA with G26U, A27U, C29U, A31U
DNA 1: CAATCTGAATTCCGGTCTCCC
DNA 2: TGGTGGCTACGACGGGATT
B30: UCGGUGG (DNA:RNA)
RNA: B1 RNA with A26C, U28G, U31G
DNA 1: CAATCTGAATTCCGGTCTCCC
DNA 2: TGGTGGCTACGACGGGATT
B31: GGCAUUG (DNA:RNA)
RNA: B21 RNA with U26G, U27C, G29U, C30U
DNA 1: CAATCTGAATTCCGGTCTCCC
DNA 2: TGGTGGCTACGACGGGATT

Each binder was assayed against T1, RBFOX1 RRM RbFoxmut (Fox-RRM*) (assay: EMSA; HiTS-Eq, 1 nM pool, 10 min; buffer printed only for the single-RNA assays: 10 mM Tris pH 7.5, 150 mM NaCl, 3.4 mM EDTA, 0.001% NP-40, 30 C). Conditions: tags: His6 N-terminal (pET28a); label: 5' 32P.
In short: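 Relative association constants, normalised to the cognate motif, were derived by comparing read counts of each RNA species with those of the control reaction. The RNA sequenced was the free fraction, separated by 8% native PAGE after a 10 min equilibration in 50 µL of 1 nM 5′-radiolabelled RNA (7 randomized nucleotides) with increasing concentrations of purified wild-type or mutant RbFox RRM.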

Row | Binder | binding signal
1 | B1 | 0.144 KA relative to UGCAUGU
2 | B2 | 0.0644 KA relative to UGCAUGU
3 | B3 | 0.0621 KA relative to UGCAUGU
4 | B4 | 0.202 KA relative to UGCAUGU
5 | B5 | 0.0847 KA relative to UGCAUGU
6 | B6 | 0.117 KA relative to UGCAUGU
7 | B7 | 0.0765 KA relative to UGCAUGU
8 | B8 | 0.128 KA relative to UGCAUGU
9 | B9 | 0.0717 KA relative to UGCAUGU
10 | B10 | 0.122 KA relative to UGCAUGU
11 | B11 | 0.0994 KA relative to UGCAUGU
12 | B12 | 0.0984 KA relative to UGCAUGU
13 | B13 | 0.0855 KA relative to UGCAUGU
14 | B14 | 0.0959 KA relative to UGCAUGU
15 | B15 | 0.107 KA relative to UGCAUGU
16 | B16 | 1.07 KA relative to UGCAUGU

Row | Binder | binding signal
17 | B17 | 0.0863 KA relative to UGCAUGU
18 | B18 | 0.144 KA relative to UGCAUGU
19 | B19 | 0.102 KA relative to UGCAUGU
20 | B20 | 0.0979 KA relative to UGCAUGU
21 | B21 | 0.116 KA relative to UGCAUGU
22 | B22 | 0.14 KA relative to UGCAUGU
23 | B23 | 0.067 KA relative to UGCAUGU
24 | B24 | 0.0836 KA relative to UGCAUGU
25 | B25 | 0.0851 KA relative to UGCAUGU
26 | B26 | 0.1 KA relative to UGCAUGU
27 | B27 | 0.382 KA relative to UGCAUGU
28 | B28 | 0.0917 KA relative to UGCAUGU
29 | B29 | 0.0987 KA relative to UGCAUGU
30 | B30 | 0.112 KA relative to UGCAUGU
31 | B31 | 0.394 KA relative to UGCAUGU
